The text below walks through data of publication PMC7819943, “Rice protein-binding microarrays: a tool to detect cis-acting elements near promoter regions in rice”.

The list shows a part of the results.

This assay concerns the target T1, OsWOX13 (Oryza sativa, UniProt Q5QMM3 1-267).
T1 sequence: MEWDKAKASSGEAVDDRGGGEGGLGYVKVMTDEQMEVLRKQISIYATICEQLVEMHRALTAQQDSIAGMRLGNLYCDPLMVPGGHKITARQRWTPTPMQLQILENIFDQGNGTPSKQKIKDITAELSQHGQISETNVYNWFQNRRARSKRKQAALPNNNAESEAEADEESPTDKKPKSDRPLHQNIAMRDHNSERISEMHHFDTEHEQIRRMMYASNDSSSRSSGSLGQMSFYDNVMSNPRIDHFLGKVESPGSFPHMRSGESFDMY
Nature of the assay: protein-binding microarray (RPBM); PBS, 2% BSA, 51.3 ng/ul salmon testes DNA, 50 uM zinc acetate, 200 nM TF, 25 C, 1 h; high values mean tight binding. To be noted: protein: recombinant; tags: N-terminal polyhistidine and DsRed monomer fusion (pET32a); label: CyDye5-dUTP incorporated in the synthesized complementary strand; 3' TTTTT single-stranded linker to array surface; dsDNA, one strand shown. An outline of the steps:
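An Axon 4000B scanner gave the binding signal as per-feature fluorescence intensity in arbitrary units. This followed washing of a custom Agilent array that had been incubated for 1 h at 25 °C with 200 nM protein in PBS, 2% BSA, salmon testes DNA and 50 µM zinc acetate. The proteins were transcription factors fused at the N-terminus to polyhistidine and DsRed, expressed in E. coli BL21-CodonPlus and purified on Ni–NTA.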
Consider “GTGAATAAATTATGAATGACAAGATTAAGAGTAAATTATGCGGAGTCACCTAGTGCAG”, for which the binding signal is 36400 fluorescence intensity (a.u.). To “ACCCCGAGCTGATTATCTCTGAACGTACGATCAAGCCGTCCGGAGTCACCTAGTGCAG” belongs 6180 fluorescence intensity (a.u.); to “GAAAATTTGACTGTTCAAAATTGTGTGAAAGTTATATTGTCGGAGTCACCTAGTGCAG”, 11100 fluorescence intensity (a.u.); to “AATTCTCCATTTAACTTTTCCGTTTTCCAATTTCACATCACGGAGTCACCTAGTGCAG”, 3390 fluorescence intensity (a.u.). The value for “ATAATAAATATAGTTAATTAAAGGAACAGAGTGAAGTCAGCGGAGTCACCTAGTGCAG” was 11600 fluorescence intensity (a.u.).

For the sequence “TAGAGATTTAATTACAATGAATACAACGGTGTGATCGGATCGGAGTCACCTAGTGCAG”, the binding signal is 11700 fluorescence intensity (a.u.). The value for “TGGAGATTAGATCTGTACAGCCGGGTATGGTTGTTCAGGACGGAGTCACCTAGTGCAG” was 3810 fluorescence intensity (a.u.); that for “TACCAACAGCGCCCTACTCGTCGTCGCTCCCGGTCGCTGCCGGAGTCACCTAGTGCAG” was 47600 fluorescence intensity (a.u.). To “ATGAAATTTAAAACTTAAATTTCGGTTATGGCTGATAAGCCGGAGTCACCTAGTGCAG” belongs 17500 fluorescence intensity (a.u.); to “ACTTGATGGCGATTAAGAGCTCCTCCTCTGTCATGCTCATCGGAGTCACCTAGTGCAG”, 7500 fluorescence intensity (a.u.). To “GTCGCCGCCAATCATGTCGTCATCGTGTCGCCATCCCATCCGGAGTCACCTAGTGCAG” belongs 11500 fluorescence intensity (a.u.).

With “ATTTATTTGAAATTTCACATATAAATCAATGTACTATGTGCGGAGTCACCTAGTGCAG”, the binding signal is 4760 fluorescence intensity (a.u.).

Take “TAGAATAAATATGAAATAAATTATGAAATTGGAAGAACAACGGAGTCACCTAGTGCAG”: the binding signal was 3700 fluorescence intensity (a.u.). For the sequence “ACCACTTGATTAGCGCCACGAGCAGCACGCGCGGGCAGACCGGAGTCACCTAGTGCAG”, the binding signal is 28800 fluorescence intensity (a.u.). Take “CATGTTTTCTTACAAATTAAATTAAGGATTTCTACTTTGACGGAGTCACCTAGTGCAG”: the binding signal is 3160 fluorescence intensity (a.u.). The value for “AATGGAGATTGGATCTGATTGGTTGTTGTTGCTTGAGGATCGGAGTCACCTAGTGCAG” was 62600 fluorescence intensity (a.u.); that for “CCGATTGATATCTAATTTTATCCCTCACAAGTCACAGGGACGGAGTCACCTAGTGCAG” was 38100 fluorescence intensity (a.u.); that for “GTTAATTAAGCTGGGAGATTAACGCTGAACAAATAATTAACGGAGTCACCTAGTGCAG” was 10400 fluorescence intensity (a.u.). To “GATTTTGATATTATAATTAATATCCATATAATAATAGCCTCGGAGTCACCTAGTGCAG” belongs 6490 fluorescence intensity (a.u.); to “ATGAGTTAAATCAAATTTACAAAGTTTAAATATGTCCATGCGGAGTCACCTAGTGCAG”, 3400 fluorescence intensity (a.u.). The value for “AGGTAAAATCACAATTAGATATGAAAATAGGGATTGCTCCCGGAGTCACCTAGTGCAG” was 7560 fluorescence intensity (a.u.).

With “GATAATTAGAGGCCGTTGCTGCTGTGCTTACCACTGTGTGCGGAGTCACCTAGTGCAG”, the binding signal was 35400 fluorescence intensity (a.u.). For the sequence “CATGCTTGATTAAAATTCATCAATGCACAAAGCATGTCAGCGGAGTCACCTAGTGCAG”, the binding signal was 21100 fluorescence intensity (a.u.). As for “ATGTTTCCTGCTTTGTCAATTAATCTCAAATGTTCAAAATCGGAGTCACCTAGTGCAG”, the binding signal was 3950 fluorescence intensity (a.u.). For the sequence “TATAAATAGATATTTGAGATTTATCCATATTACGTTGAGTCGGAGTCACCTAGTGCAG”, the binding signal is 7020 fluorescence intensity (a.u.). For the sequence “GCAAAATTGGCAAACAGCTGTCAACTGGGAGGCAAATATCCGGAGTCACCTAGTGCAG”, the binding signal is 18200 fluorescence intensity (a.u.). Take “CCTGACAGCTACTATAGCTTGCTCCAGCGCTGTCAAACTTCGGAGTCACCTAGTGCAG”: the binding signal is 4050 fluorescence intensity (a.u.). The value for “CCAAGAAATGATTTTAACTGCAGATACAGTCTTCTTCCTGCGGAGTCACCTAGTGCAG” was 9560 fluorescence intensity (a.u.); that for “ACTCAGATTAATATTTCACAATTTGCAGATGTTCTTCATCCGGAGTCACCTAGTGCAG” was 5960 fluorescence intensity (a.u.); that for “GAGTTTTAATTATTATAAACTTAAAATATATATATTTGATCGGAGTCACCTAGTGCAG” was 20500 fluorescence intensity (a.u.). The value for “CCGCTGAATCATCGTCAATCATCATCAGACACACTAGTGACGGAGTCACCTAGTGCAG” was 22000 fluorescence intensity (a.u.); that for “ATGAGATTGCTTTTGTGTAGAGCACTCTATGTAATTTAACCGGAGTCACCTAGTGCAG” was 5800 fluorescence intensity (a.u.); that for “TGTAACCAATTAACTAGTCCGTATCTGCAAACACACAGCGCGGAGTCACCTAGTGCAG” was 9410 fluorescence intensity (a.u.).

For “CTTGCAAATCAATCAGTCTTTCTCTCTCCGATTCTCTGTACGGAGTCACCTAGTGCAG”, the binding signal is 24000 fluorescence intensity (a.u.).

Consider “CATCGATCGAGCTGATTGCTGCTTCGCGTACGCGCCTAGACGGAGTCACCTAGTGCAG”, for which the binding signal is 3490 fluorescence intensity (a.u.). As to “TTTACTTATCAATCATGGCTCAAACAATTAGTTTAAGATGCGGAGTCACCTAGTGCAG”, the binding signal was 19800 fluorescence intensity (a.u.). Consider “GTAATTAATTAACATTGCAATTAAGCACATAAGTTAATCACGGAGTCACCTAGTGCAG”, for which the binding signal was 27000 fluorescence intensity (a.u.). To “ATCCAATTAATTTATCTAGCATTTTGGATTTACCACCTCACGGAGTCACCTAGTGCAG” belongs 38100 fluorescence intensity (a.u.); to “TACGCTATACGCAGTAATTGATATATATAATCTTCATGGTCGGAGTCACCTAGTGCAG”, 8920 fluorescence intensity (a.u.); to “ATGAAAGATTGATATGTTGACATGTTCACAGATGAACTTACGGAGTCACCTAGTGCAG”, 17200 fluorescence intensity (a.u.). As for “GGATTAATTTGTGATACGATCGGGTGAAAATATGGTTGTTCGGAGTCACCTAGTGCAG”, the binding signal is 36400 fluorescence intensity (a.u.). As to “AATAATTATATTGTGAGTGAGCTTAAATAAGAAACTATGTCGGAGTCACCTAGTGCAG”, the binding signal is 27600 fluorescence intensity (a.u.). To “TAAACAGGTAATTATCCAAGAGCCAAATTAACCAAGACAGCGGAGTCACCTAGTGCAG” belongs 23700 fluorescence intensity (a.u.).

Take “AATCATGGATTAATTAGTCTCAAAAGATCCGTATCGCGATCGGAGTCACCTAGTGCAG”: the binding signal is 3180 fluorescence intensity (a.u.). Regarding “GAAAATTCAAATTTTAGCTAATTAATAAGCATATGTATAACGGAGTCACCTAGTGCAG”, the binding signal is 8390 fluorescence intensity (a.u.). The value for “ACTCATCAACAGTAGAAATTTAATTGAATTGCCATATGGTCGGAGTCACCTAGTGCAG” was 5530 fluorescence intensity (a.u.).

Turning to “TGTGCTCAGCCTTAATTAATTAATCGAGCGAGTCATAAGCCGGAGTCACCTAGTGCAG”, the binding signal was 13000 fluorescence intensity (a.u.). To “ATGACATAGTTAAATTTGAAAATAATGCAACTTAATACTTCGGAGTCACCTAGTGCAG” belongs 4360 fluorescence intensity (a.u.). Take “CACAGATAATATAAATTGAGACACCGAAATCAAGAACTCGCGGAGTCACCTAGTGCAG”: the binding signal was 15300 fluorescence intensity (a.u.). The value for “AAATAAACAAATCAAGAACATTCTACAAAAGACAGTCCATCGGAGTCACCTAGTGCAG” was 3230 fluorescence intensity (a.u.); that for “GGAGATACGGCGAGGGGAGGGGACGGAGGGGCGGGGTGCGCGGAGTCACCTAGTGCAG” was 5050 fluorescence intensity (a.u.); that for “CTATAGTATAATTACATTGTAATTTTAGTTTTCTAACACTCGGAGTCACCTAGTGCAG” was 11500 fluorescence intensity (a.u.). To “AAGATAAATTAATATGTAATATATCACTTCATAAATATACCGGAGTCACCTAGTGCAG” belongs 9450 fluorescence intensity (a.u.); to “TATTTTAAATTATAATATGTATAAAATTGTTAGCAAAACGCGGAGTCACCTAGTGCAG”, 4730 fluorescence intensity (a.u.).
